# Data: the supplement of paper PMC10369915
# The other results are listed elsewhere or left out. Rule as the data show it: active = 3.2 or more and inactive = the rest. Only a few entries rise above the background.
# B1: PSEN1_Y154_Y154C (peptide)
# chain: LLVVLCKYRCY
# B2: PSEN1_Y154_Y154N (peptide)
# chain: LLVVLNKYRCY
# B3: PSEN1_Y154_Y159F (peptide)
# chain: LLVVLYKYRCF
# B4: PSEN1_Y240 (peptide)
# chain: LVFIKYLPEWT
# B5: PSEN1_Y240_F237L (peptide)
# chain: LVLIKYLPEWT
# B6: PSEN1_Y240_L235R (peptide)
# chain: RVFIKYLPEWT
# B7: PSG4_Y271_K267E (peptide)
# chain: SENYTYIWWLN
# B8: PSMA7_Y110_A112D (peptide)
# chain: EYITRYIDSLK
# B9: PSMA7_Y110_A112D_YF (peptide)
# chain: EFITRYIDSLK
# B10: PSTPIP2_Y323 (peptide)
# chain: PDDPNYSLVDD
# B11: PTCHD3_Y335_P333A (peptide)
# chain: TEDAEYDVQSK
# B12: PTDSS1_Y274_P269S (peptide)
# chain: SASWTYVRWFD
# B13: PTDSS1_Y424 (peptide)
# chain: CEDGTYSPEIS
# B14: PTEN_Y138_C136Y_YF (peptide)
# chain: VMIFAYLLHRG
# B15: PTEN_Y138_M134L (peptide)
# chain: VLICAYLLHRG
# B16: PTEN_Y174 (peptide)
# chain: PSQRRYVYYYS
# B17: PTEN_Y174_S170R_YF (peptide)
# chain: PRQRRYVFFFS
# B18: PTEN_Y174_Y174N_YF (peptide)
# chain: PSQRRNVFFFS
# B19: PTEN_Y176_R173C_YF (peptide)
# chain: QRCFVYFFSFL
# Target: SHP2 C-SH2 domain E139D
# Experiment: enrichment score (SH2-bound / input frequency) (ratio); bacterial display of known human phosphotyrosine sites (pTyr-Var adds point mutants) read by sequencing; higher = stronger binding; tyrosines were phosphorylated by kinases first
# Conditions: peptide library: pTyr-Var
# 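Also: displayed peptides selected on beads carrying the immobilized SH2 domain, with library peptides lacking any tyrosine serving as negative controls.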
row,Binder,enrichment score
1,B1,inactive: 3.13
2,B2,inactive: 1.36
3,B3,active: 3.75
4,B4,active: 4.04
5,B5,active: 3.95
6,B6,inactive: 2.23
7,B7,inactive: 0.513
8,B8,inactive: 1.36
9,B9,inactive: 1.01
10,B10,inactive: 0.59
11,B11,inactive: 0.497
12,B12,inactive: 1.97
13,B13,inactive: 0.762
14,B14,inactive: 1.85
15,B15,inactive: 2.3
16,B16,inactive: 0.6
17,B17,inactive: 0.313
18,B18,inactive: 0.698
19,B19,inactive: 2.25

# Target: SHP2 C-SH2 domain wild-type
# Experiment: as above
# Conditions: peptide library: pTyr-Var
row,Binder,enrichment score
1,B1,inactive: 3.1
2,B2,inactive: 1.61
3,B3,active: 3.88
4,B4,active: 4.09
5,B5,active: 3.35
6,B6,inactive: 2.09
7,B7,inactive: 0.679
8,B8,inactive: 1.08
9,B9,inactive: 0.836
10,B10,inactive: 0.551
11,B11,inactive: 0.42
12,B12,inactive: 1.8
13,B13,inactive: 0.742
14,B14,inactive: 1.67
15,B15,inactive: 2.41
16,B16,inactive: 0.581
17,B17,inactive: 0.319
18,B18,inactive: 0.535
19,B19,inactive: 2.2

# Target: SHP2 N-SH2 domain L43F
# Experiment: as above
# Conditions: peptide library: pTyr-Var
row,Binder,enrichment score
1,B1,inactive: 3.05
2,B2,inactive: 1.04
3,B3,inactive: 3.2
4,B4,active: 4.06
5,B5,active: 3.65
6,B6,inactive: 2.3
7,B7,inactive: 0.706
8,B8,inactive: 1.38
9,B9,inactive: 0.97
10,B10,inactive: 0.518
11,B11,inactive: 0.484
12,B12,inactive: 1.65
13,B13,inactive: 0.699
14,B14,inactive: 1.79
15,B15,inactive: 2.09
16,B16,inactive: 0.475
17,B17,inactive: 0.399
18,B18,inactive: 0.701
19,B19,inactive: 2.42

# Target: SHP2 N-SH2 domain T42A
# Experiment: as above
# Conditions: peptide library: pTyr-Var
row,Binder,enrichment score
1,B1,inactive: 2.34
2,B2,inactive: 1.12
3,B3,inactive: 2.78
4,B4,active: 3.2
5,B5,active: 3.41
6,B6,inactive: 1.97
7,B7,inactive: 0.529
8,B8,inactive: 1.49
9,B9,inactive: 1.15
10,B10,inactive: 0.357
11,B11,inactive: 0.536
12,B12,inactive: 1.68
13,B13,inactive: 0.583
14,B14,inactive: 1.52
15,B15,inactive: 1.87
16,B16,inactive: 0.365
17,B17,inactive: 0.343
18,B18,inactive: 0.657
19,B19,inactive: 2.36

# Target: SHP2 N-SH2 domain T52S
# Experiment: as above
# Conditions: peptide library: pTyr-Var
row,Binder,enrichment score
1,B1,inactive: 2.8
2,B2,inactive: 1.34
3,B3,active: 3.48
4,B4,active: 3.32
5,B5,active: 3.68
6,B6,inactive: 2.22
7,B7,inactive: 0.577
8,B8,inactive: 1.15
9,B9,inactive: 1.36
10,B10,inactive: 0.463
11,B11,inactive: 0.571
12,B12,inactive: 1.92
13,B13,inactive: 0.645
14,B14,inactive: 1.89
15,B15,inactive: 1.91
16,B16,inactive: 0.53
17,B17,inactive: 0.221
18,B18,inactive: 0.603
19,B19,inactive: 2.63

# Target: SHP2 N-SH2 domain wild-type
# Experiment: as above
# Conditions: peptide library: pTyr-Var
row,Binder,enrichment score
1,B1,active: 4.15
2,B2,inactive: 1.24
3,B3,inactive: 2.73
4,B4,inactive: 3.18
5,B5,active: 3.76
6,B6,inactive: 1.87
7,B7,inactive: 0.731
8,B8,inactive: 1.2
9,B9,inactive: 1.19
10,B10,inactive: 0.49
11,B11,inactive: 0.488
12,B12,inactive: 2.02
13,B13,inactive: 0.717
14,B14,inactive: 2
15,B15,inactive: 2.5
16,B16,inactive: 0.584
17,B17,inactive: 0.252
18,B18,inactive: 0.779
19,B19,inactive: 2.39
